Results published in the supplement of paper PMC3334620.
In all, about 33,000 sequences were measured (“E-score (-0.5 to 0.5)”: median about -0.043, highest 2% from about 0.37 on). The list shows a part of the results.

Target: T1, Upc2 (UniProt Q12151)
T1 sequence: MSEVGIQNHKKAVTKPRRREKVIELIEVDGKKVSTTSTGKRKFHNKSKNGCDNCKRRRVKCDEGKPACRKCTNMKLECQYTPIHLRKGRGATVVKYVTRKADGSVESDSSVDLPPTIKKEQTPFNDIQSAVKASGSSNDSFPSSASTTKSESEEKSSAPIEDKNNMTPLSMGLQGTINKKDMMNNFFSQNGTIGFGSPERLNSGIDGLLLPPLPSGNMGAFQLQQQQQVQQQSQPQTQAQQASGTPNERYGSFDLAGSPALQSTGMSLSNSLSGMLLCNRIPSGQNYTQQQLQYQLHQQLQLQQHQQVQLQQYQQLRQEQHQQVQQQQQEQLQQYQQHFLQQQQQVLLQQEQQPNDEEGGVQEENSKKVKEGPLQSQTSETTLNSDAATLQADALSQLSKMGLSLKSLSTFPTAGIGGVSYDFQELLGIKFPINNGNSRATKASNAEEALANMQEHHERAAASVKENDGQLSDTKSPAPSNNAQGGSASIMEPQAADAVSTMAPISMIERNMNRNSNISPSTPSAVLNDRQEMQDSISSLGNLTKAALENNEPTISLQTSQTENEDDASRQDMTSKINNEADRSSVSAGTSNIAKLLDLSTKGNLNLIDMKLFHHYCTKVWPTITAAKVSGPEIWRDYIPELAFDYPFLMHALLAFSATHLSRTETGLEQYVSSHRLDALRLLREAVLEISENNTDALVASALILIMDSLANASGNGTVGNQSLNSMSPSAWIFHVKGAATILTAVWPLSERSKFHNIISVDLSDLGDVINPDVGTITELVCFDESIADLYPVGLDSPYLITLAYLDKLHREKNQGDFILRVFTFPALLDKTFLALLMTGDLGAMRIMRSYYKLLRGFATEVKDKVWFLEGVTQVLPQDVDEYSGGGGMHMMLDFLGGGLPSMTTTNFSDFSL
Assay: PBM E-score (8-mer binding enrichment) (E-score (-0.5 to 0.5)); higher = stronger / more preferred TF binding; most listed sequences are background and not binding sites
Settings: protein concentration: 200 nM; construct: GST-full length
Method in brief: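 The E-score, a modified Wilcoxon-Mann-Whitney statistic, was computed by the Universal PBM Analysis Suite for every ungapped eight-base word pooled with its reverse complement. Scans behind it were normalised with masliner after bound GST-tagged yeast transcription factors were detected with fluorescent anti-GST. The proteins, at about 100-200 nM, had been applied to universal all-10-mer Agilent arrays made double-stranded by primer extension.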

Row | Sequence | PBM E-score
1 | ATGGCCTG | -0.376
2 | CTTTGCTC | -0.0159
3 | TAGCTGAA | 0.0815
4 | CAGTCCTA | -0.227
5 | CAGCGATG | -0.138
6 | GAGTTGAC | 0.0207
7 | GAGCCAAC | -0.0768
8 | ACCGGACT | -0.059
9 | AACTAGGC | -0.0956
10 | CGCTTCCG | 0.132
11 | AGTTCCCG | 0.0353
12 | AGCAAGAA | -0.16
13 | GGGTTTGA | 0.0184
14 | ATTTCGGA | 0.0761
15 | GTGTGTCA | 0.0729
16 | GGACACGA | 0.106
17 | CATCAGAA | -0.0155
18 | GAAACCCC | -0.198
19 | AGGGCTGC | -0.205
20 | CGACAACG | 0.272
21 | AACTGCGG | -0.016
22 | ATTAACGA | 0.424
23 | AATAGAGG | -0.0358
24 | CCGCCGAG | -0.0609
25 | ATCTTACG | 0.287

Row | Sequence | PBM E-score
26 | AAGTTTGG | 0.00199
27 | CTGGAGGC | -0.31
28 | AGTTTATC | 0.115
29 | CTTTGCCA | -0.0739
30 | ATTGCGGC | -0.13
31 | ATTATCTG | -0.0234
32 | ACCGCAAA | 0.134
33 | ATTCGGGA | -0.048
34 | CCATCGTA | 0.44
35 | AATTCTTA | 0.0248
36 | CCCGGGAA | 0.0107
37 | GACAGACA | 0.0541
38 | AACATGTC | 0.0334
39 | CCGTCCGA | -0.162
40 | ACACGTCC | -0.166
41 | CATTGACG | 0.00015
42 | CCGTAGCA | 0.0702
43 | GAACGAAA | 0.416
44 | AGGTTAAC | 0.11
45 | CCAGTGGG | -0.282
46 | GGTACTTA | -0.191
47 | ACCTTTGC | -0.0579
48 | ATAGAGTC | -0.0367
49 | AAATCGCT | 0.033
50 | CAGTAGCC | -0.159

Row | Sequence | PBM E-score
51 | AAGATCGC | 0.148
52 | CCGGGAAG | -0.202
53 | AGAGTATG | -0.00032
54 | CGATACAG | 0.0338
55 | CCAATTTC | -0.019
56 | AGGTGCAA | -0.111
57 | GTCGAGAA | -0.0479
58 | GGAAATCA | 0.0219
59 | CCCCAAAG | -0.154
60 | ATGGACAG | -0.334
61 | ATATCTCC | -0.103
62 | GTGAAGAA | 0.0736
63 | AGACCAAT | -0.0887
64 | AGGGCGGG | 0.00785
65 | TACTTGAA | 0.0955
66 | GCAGTACA | -0.155
67 | CAACGAAG | 0.235
68 | AGCGTACT | 0.0261
69 | AAGGCCAG | -0.182
70 | CTACCAAG | -0.172
71 | ATATGTTG | -0.0893
72 | CATCGGCA | -0.0792
73 | CATCTTGG | -0.305
74 | AGTGATAT | 0.132
75 | CGAAGTAC | 0.204

Row | Sequence | PBM E-score
76 | GAAGGGGC | -0.219
77 | TGAGAACA | -0.263
78 | GGATTACA | -0.201
79 | ACACACAC | 0.0448
80 | CGAGAATA | 0.167
81 | ACTTATAG | 0.11
82 | AAGCGAGT | 0.319
83 | ATTAAAAG | 0.101
84 | ATAAAGAC | -0.0679
85 | ATCCGCTC | 0.139
86 | AAACGCGA | 0.337
87 | GTCGCGTA | 0.326
88 | ATCGCCAT | -0.0336
89 | ATGACAAG | -0.146
90 | GAGCCTTA | -0.0515
91 | GACTTGGC | -0.0943
92 | CGTCGGCC | -0.159
93 | AATACTAT | -0.241
94 | CGCGGGGA | -0.0478
95 | ACCCGTAA | 0.24
96 | CCCTCGAC | -0.12
97 | GTACGTAC | 0.324
98 | GTCATTCA | -0.166
99 | GCAAAACA | -0.144
100 | AGAGATAC | 0.157

Row | Sequence | PBM E-score
101 | AGGGTGTC | -0.186
102 | CAGGAGAG | -0.133
103 | AGAGCAAA | -0.148
104 | CCAAGAGG | -0.316
105 | AAGATATA | 0.127
106 | CTGCAACA | 0.0316
107 | CCTGTGTA | -0.0847
108 | ATCTATCA | 0.0727
109 | ACTTCTGC | -0.04
110 | CATGACGC | -0.0058
111 | ATTATGGG | -0.315
112 | CAAGACCA | -0.319
113 | ATAGAATA | -0.132
114 | AAGGAGGC | -0.317
115 | GTCTGCTA | -0.148
116 | CCCCCTCG | 0.141
117 | AGTACGCA | -0.0414
118 | AAGAGACG | 0.102
119 | ATGTACCG | -0.03
120 | AAGGAGTG | -0.0551
121 | ACCAATAT | 0.0909
122 | CAGACTAA | -0.124
123 | CGGCTCTA | -0.0521
124 | CTCAGAAA | -0.00708
125 | CTTACCCC | -0.232

Row | Sequence | PBM E-score
126 | ACTTGTTG | -0.135
127 | ACACACGC | 0.0327
128 | AACCGTGA | -0.0176
129 | ACCTCGCA | 0.153
130 | AACAGCAA | -0.175
131 | CGCCAAGC | -0.128
132 | CACGGTGA | -0.0342
133 | CTCGGCGC | 0.069
134 | GAGACCTC | -0.0563
135 | CGCCATAG | -0.0763
136 | ATAGCACC | -0.0788
137 | AGGTCTTA | 0.104
138 | ATGTAAAG | -0.0452
139 | CAGCATAG | -0.167
140 | CAGAGTCG | -0.0742
141 | ACGCAATG | 0.00346
142 | CGGCCATA | 0.0434
143 | AGTCGCTA | 0.0916
144 | CATAGCCA | -0.226
145 | CTAGGCCC | -0.335
146 | AGCGGGTG | -0.152
147 | GATTACAC | -0.0488
148 | GCAAGGGA | -0.0719
149 | ACCTTCAC | -0.145
150 | ATATTATC | -0.0501

Row | Sequence | PBM E-score
151 | CGATAATC | -0.0391
152 | ACGTCACC | -0.049
153 | GTGGGACA | -0.146
154 | CAAGTCCC | -0.298
155 | GACCGTAC | 0.36
156 | CACTGAAA | 0.0683
157 | ATGTCCAC | -0.208
158 | ATCCTATA | 0.0557
159 | AGGTATTC | 0.109
160 | ACGCGGGC | 0.00815
161 | AATACGCA | 0.159
162 | ACACCAGG | -0.251
163 | AAATCAAC | -0.0395
164 | CTCGCTCC | 0.313
165 | CCACGGAC | -0.276
166 | CGAGCCAA | 0.0857
167 | AGCGAGCA | 0.245
168 | GTCGCCTA | -0.0155
169 | AAGAAACG | 0.308
170 | TCAGTCGA | -0.00236
171 | CCTGAGAA | -0.0858
172 | CAGAGCGG | -0.24
